These results are taken from ChEMBL document CHEMBL4888484, “Replenishing the malaria drug discovery pipeline: Screening and hit evaluation of the MMV Hit Generation Library 1 (HGL1) against asexual blood stage Plasmodium falciparum ,using a nano luciferase reporter read-out” (2022).

Hit rate of the full screen: of about 150,000 compounds, about 540 (0.36%) showed an effect of 50% or more. The list shows a part of the results.

The subject of the test is Plasmodium falciparum. Put plainly: Primary screen in NF54 nanoGlo assay, in single point, at 2uM, 72h; a lower Z score goes with more inhibition. The settings on record: timepoint 72 hour. The format is functional, Erythrocyte.
On to `Cn1cnnc1N1CCN(C(=O)Nc2c(F)cc(F)cc2-c2ccccc2)CC1`, for which the “% Inhibition” value is -4% and the Z score turned out to be 0.71.

For the compound `N#Cc1c(NC(=O)C2CCCC2)sc2c1CCC2`, the “% Inhibition” value is -4% and the Z score is 0.78.

Turning to `Cc1nc(-c2ccc(Cl)c(S(=O)(=O)N3CCC(C(=O)Nc4cccnc4)CC3)c2)no1`, the “% Inhibition” value was determined as 7% and the Z score is on record as -0.93.

`CCOC(=O)c1noc2nc(C)nc(NC3CCN(Cc4ccccc4)CC3)c12`: the “% Inhibition” value is -17% and the Z score turned out to be 3.15.

`O=C(Nc1ccc2c(c1)CCC2)c1ccc2ccccc2n1`: the “% Inhibition” value was found to be 32% and the Z score is recorded as -2.72.

Regarding `COC[C@H](NC(=O)C1(C)COC1)c1ccccn1`, the “% Inhibition” value was determined as 6% and the Z score is listed as -0.8.

For the compound `Cc1nc(N2CCCC2)ccc1Nc1ncnc2onc(C)c12`, the “% Inhibition” value was -1% and the Z score was found to be 0.13.

As to `Cc1nc2ccnn2c(C)c1CCC(=O)N[C@H]1C[C@H](CO)C1`, the “% Inhibition” value worked out at 5% and the Z score is given as -0.81.

Consider `CCc1nn(CC(=O)N2CCN(c3ccccn3)CC2)c(=O)c2cc3ccccc3n12`, for which the “% Inhibition” value is -10% and the Z score amounted to 1.33.

With `Cn1cc(Cl)c(C(=O)N(Cc2ccncc2)C[C@H]2CCCO2)n1`, the “% Inhibition” value was -6% and the Z score is on record as 1.05.

As for `Cc1ccc(C)c(S(=O)(=O)Nc2ccc(-c3cc4cc(Cl)ccc4[nH]3)cc2)c1`, the “% Inhibition” value is -15% and the Z score is 1.29.

For `COc1nccnc1N1CCC2(CC1)CC(=O)N(Cc1c(C)noc1C)C2`, the “% Inhibition” value is -7% and the Z score came out at 1.26.

Regarding `c1cc(CN2CCN(c3ccc4nccn4n3)CC2)ccn1`, the “% Inhibition” value is given as -17% and the Z score was 1.46.

With `C[C@@H](c1ccccc1)n1cc(NC(=O)CN2CCN(C)C(=O)C2)cn1`, the “% Inhibition” value is recorded as -3% and the Z score worked out at 0.47.

For the compound `CCC(CC)n1nccc1C(=O)NCC(C)(C)c1ccc(C)cn1`, the “% Inhibition” value is recorded as -10% and the Z score was found to be 1.55.

In the case of `O=C(c1cccnc1)N1C[C@H]2CC[C@@H](C1)N(C(=O)NCc1ccccc1)C2`, the “% Inhibition” value is reported as -16% and the Z score was 1.59.

For `C[C@H]1Cc2ccccc2N1C(=O)CN1C(=O)c2cc(Cl)c(Cl)cc2C1=O`, the “% Inhibition” value was -16% and the Z score turned out to be 2.43.

For the compound `C#CCOc1ccc(CNC(C)(C)CO)cc1OCC`, the “% Inhibition” value is listed as -2% and the Z score came to 0.36.

Turning to `C[C@H]1CCCCN1Cc1cc2ccc(Cl)cc2n(Cc2ccccn2)c1=O`, the “% Inhibition” value is -1% and the Z score amounted to 0.19.

As for `O=C(NCc1cccnc1)c1nc(C2CC2)nc2c1OCCO2`, the “% Inhibition” value amounted to 11% and the Z score is reported as -1.46.

`Cc1ccc(F)c(S(=O)(=O)N2CCC=C(c3cnn(C)c3)C2)c1`: the “% Inhibition” value stood at 2% and the Z score is on record as -0.41.

Regarding `Cc1nc(C2CC(O)C2)cc(N2CC(N3CCCCC3)C2)n1` (centres undefined), the “% Inhibition” value amounted to 13% and the Z score is listed as -1.73.

For `COCCC1(C(N)=O)CCN(C2CN(S(=O)(=O)c3cccc(Cl)c3)C2)CC1`, the “% Inhibition” value is on record as -3% and the Z score stood at 0.4.

`C[C@@H](C1CC1)N(C)C(=O)Cn1c(=O)n(C)c2ccccc21`: the “% Inhibition” value is given as -14% and the Z score was found to be 2.58.

Consider `O=C(c1cc2cc(Cl)ccn2n1)N1CCC(n2nnc3c2CCCC3)CC1`, for which the “% Inhibition” value is reported as 7% and the Z score is recorded as -0.85.

As for `CC(C)(NC(=O)Nc1ccn(CC(F)(F)F)n1)C(=O)N1CCCC1`, the “% Inhibition” value came out at 1% and the Z score is -0.17.

Consider `Fc1ccc([C@@H]2Cn3nc(-c4nc(-c5ccccn5)no4)cc3CO2)cc1`, for which the “% Inhibition” value worked out at 5% and the Z score is -0.52.

Consider `COc1ccc(C(=O)N2CCNC(=O)C2)cc1S(=O)(=O)N1CCN(c2cccc(Cl)c2)CC1`, for which the “% Inhibition” value is reported as -13% and the Z score is reported as 2.13.

`Cc1nonc1CC(=O)N1CCC[C@H]1C(F)(F)F`: the “% Inhibition” value was -2% and the Z score is reported as 0.34.

With `O=C(CCC1CCCC1)Nc1ccc(-c2nnc3n2CCCC3)cc1`, the “% Inhibition” value is given as -17% and the Z score amounted to 1.6.

Take `C[C@@]12CCCN1C(=O)[C@@H](c1ccccc1)NC2=O`: the “% Inhibition” value is on record as -1% and the Z score is 0.25.

Consider `Nc1nc(N)nc(Cn2cccc(C(F)(F)F)c2=O)n1`, for which the “% Inhibition” value is recorded as -3% and the Z score was determined as 0.46.

With `O=C1C[C@]2(NC(=O)c3cccc(Cl)c3Cl)CCCC[C@@H]2N1`, the “% Inhibition” value stood at 0% and the Z score is recorded as 0.04.

For `O=C(Cc1ccsc1)N1CC2(C[C@H](N3CCCCC3)CO2)C1`, the “% Inhibition” value is given as -7% and the Z score is reported as 1.1.

Regarding `CN1CCc2ccc(C(=O)NC3(C(=O)NCC4CC4)CCCC3)cc21`, the “% Inhibition” value turned out to be 3% and the Z score is listed as -0.28.

As for `COc1c(F)cc(F)cc1-c1ccc(C(=O)NC2CC2)cc1`, the “% Inhibition” value was -10% and the Z score is recorded as 1.73.

Turning to `CCC[C@H]1CN(Cc2ccc3nsnc3c2)C[C@@H]1NS(C)(=O)=O`, the “% Inhibition” value is -8% and the Z score was determined as 1.06.

Turning to `CCCc1cc(C(=O)N(Cc2ccccn2)C[C@@H]2CCC(=O)N2)[nH]n1`, the “% Inhibition” value is listed as -3% and the Z score is reported as 0.59.

Take `CC(C)N(CC(N)=O)S(=O)(=O)c1ccc(F)c(Cl)c1`: the “% Inhibition” value is reported as 7% and the Z score was -1.05.

In the case of `CCOC(=O)C1C2C(=O)N(c3ccc(Cl)cc3)C(=O)C12` (centres undefined), the “% Inhibition” value was -2% and the Z score is 0.31.

Turning to `C[C@H]1CN(Cc2ccn(CC(F)(F)F)n2)CCN(C2CCC2)C1`, the “% Inhibition” value is -13% and the Z score is 2.42.

For `Nc1c(-c2ccc(Cl)cc2)cnc2cc(-c3ccc(Cl)c(Cl)c3)nn12`, the “% Inhibition” value is -1% and the Z score amounted to 0.13.
